# Inconclusive results are not listed. Calls follow the shape of the dose curve; as a rule, active = well fitted curve in the direction sought with a large enough effect in the repeat runs; inconclusive = weak or mixed curves; inactive = no such curve, though single readings can be large; an effect the other way counts as inactive or inconclusive. Some structures have more than one record in an assay (separate samples or runs), and their calls can disagree. The source holds more than one record for some entries. Only these are listed. There may be further records. Results that share an entry are repeated measurements in other runs, samples, wells, individuals or studies. A tag in brackets gives the origin of a value. Letters count within one entry.
# Legend:
# [1] = qHTS assay to identify small molecule antagonists of the thyroid receptor (TR) signaling pathway (AID 743065); also: nearly all actives have a fitted effect of over 55% in size
# Summary of the method: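 GH3.TRE-Luc rat pituitary cells (two TREs driving luciferase) were dosed with compound, then stimulated with 1 nM T3 (final) for 23.5 h at 37 C. ONE-Glo luminescence was the read-out, with CellTiter-Fluor fluorescence as the cytotoxicity counter-screen.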
# [2] = qHTS assay to identify small molecule agonists of the constitutive androstane receptor (CAR) signaling pathway - cell viability counter screen (AID 1224836); also: nearly all actives have a fitted effect of over 45% in size
# Summary of the method: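 Cells were seeded and incubated 4 hrs. Compounds were added across 15 concentrations together with PK11195 at 0.75 uM final. Plates were incubated 23 hrs at 37 C. CellTiter-Fluor was added and fluorescence measured.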
# [3] = qHTS assay to identify small molecule antagonists of the constitutive androstane receptor (CAR) signaling pathway - cell viability counter screen (AID 1224837); also: nearly all actives have a fitted effect of over 45% in size
# Summary of the method: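 Counter screen run in HepG2-CYP2B6-hCAR cells: 4 hr settle, compound titration (15 concentrations) with 50 nM CITCO, 23 hr at 37 C/5% CO2, CellTiter-Fluor fluorescence.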
# [4] = target: Androgen receptor (Homo sapiens) (UniProt P10275); test: qHTS assay to identify small molecule agonists of the androgen receptor (AR) signaling pathway using the MDA cell line (AID 743040; also: nearly all actives have a fitted effect of over 20% in size)
# [5] = A CellTox Green Cytotoxicity Assay to monitor cytotoxicity in HEK293 cells - 16 hour (AID 1224888); also: nearly all actives have a fitted effect of over 35% in size
# Summary of the method: (§1)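 Fluorescence intensity, read at 0, 8, 16, 24, 32 and 40 h of compound treatment, reflected dye binding to DNA of dead HEK293 cells; compounds (23 nL, DMSO) were added 5 h after plating cells with reagent.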
# [6] = qHTS assay to identify small molecule antagonists of the glucocorticoid receptor (GR) signaling pathway - cell viability counter screen (AID 720693); also: nearly all actives have a fitted effect of over 55% in size
# [7] = A CellTox Green Cytotoxicity Assay to monitor cytotoxicity in HEK293 cells - 24 hour (AID 1224875); also: nearly all actives have a fitted effect of over 45% in size
# Summary of the method: as §1
# [8] = qHTS assay to identify small molecule antagonists of the estrogen receptor alpha (ER-alpha) signaling pathway using the BG1 cell line in the presence of 0.1 nM 17-beta-estradiol - cell viability counter screen (AID 1259241); also: nearly all actives have a fitted effect of over 40% in size
# Description: National Center for Advancing Translational Sciences [NCATS]
# NIH Chemical Genomics Center [NCGC]
# U.S. Environmental Protection Agency [EPA]
# National Institutes of Environmental Health Sciences [NIEHS]
# National Toxicology Program [NTP]
# U.S. Food and Drug Administration [FDA]
# Estrogen receptor (ER), a member of the nuclear hormone receptor plays an important role in development, metabolic homeostasis and reproduction. Two subtypes of ER, ER-alpha and ER-beta, have similar expression patterns with some uniqueness in both types. Endocrine disrupting chemicals (EDCs) and their interactions with steroid hormone receptors like ER causes disruption of normal endocrine function. Therefore, it is important to understand the effect of environmental chemicals in ER signaling pathway. For identifying ER antagonists, VM7Luc4E2 cell line was used to screen against Tox21 compound libraries. […]
# VM7Luc4E2 cells were cultured in phenol red free assay medium containing 10% charcoal stripped FBS for 5 days prior to the assay. […] For cytotoxicity assay, 1 uL of CellTiter-Fluor reagent (Promega Corporation, Madison, WI) was added to each well using the FRD and after 30 min incubation at 37C and 5% CO2, The fluorescence intensity was measured using ViewLux plate reader (PerkinElmer, Shelton, CT).
# [9] = qHTS assay to identify small molecule antagonists of the progesterone receptor (PR) signaling pathway - cell viability counter screen (AID 1346798); also: nearly all actives have a fitted effect of over 50% in size
# Summary of the method: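 Counter screen for cytotoxicity: viability of PR-UAS-bla HEK293T cells was measured with CellTiter-Glo luminescence following 16 hr compound exposure in the presence of R5020.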
# Potency is read from the fitted curve at half-maximal effect.
# Sequence of UniProt P10275 (P10275 whole entry, looked up): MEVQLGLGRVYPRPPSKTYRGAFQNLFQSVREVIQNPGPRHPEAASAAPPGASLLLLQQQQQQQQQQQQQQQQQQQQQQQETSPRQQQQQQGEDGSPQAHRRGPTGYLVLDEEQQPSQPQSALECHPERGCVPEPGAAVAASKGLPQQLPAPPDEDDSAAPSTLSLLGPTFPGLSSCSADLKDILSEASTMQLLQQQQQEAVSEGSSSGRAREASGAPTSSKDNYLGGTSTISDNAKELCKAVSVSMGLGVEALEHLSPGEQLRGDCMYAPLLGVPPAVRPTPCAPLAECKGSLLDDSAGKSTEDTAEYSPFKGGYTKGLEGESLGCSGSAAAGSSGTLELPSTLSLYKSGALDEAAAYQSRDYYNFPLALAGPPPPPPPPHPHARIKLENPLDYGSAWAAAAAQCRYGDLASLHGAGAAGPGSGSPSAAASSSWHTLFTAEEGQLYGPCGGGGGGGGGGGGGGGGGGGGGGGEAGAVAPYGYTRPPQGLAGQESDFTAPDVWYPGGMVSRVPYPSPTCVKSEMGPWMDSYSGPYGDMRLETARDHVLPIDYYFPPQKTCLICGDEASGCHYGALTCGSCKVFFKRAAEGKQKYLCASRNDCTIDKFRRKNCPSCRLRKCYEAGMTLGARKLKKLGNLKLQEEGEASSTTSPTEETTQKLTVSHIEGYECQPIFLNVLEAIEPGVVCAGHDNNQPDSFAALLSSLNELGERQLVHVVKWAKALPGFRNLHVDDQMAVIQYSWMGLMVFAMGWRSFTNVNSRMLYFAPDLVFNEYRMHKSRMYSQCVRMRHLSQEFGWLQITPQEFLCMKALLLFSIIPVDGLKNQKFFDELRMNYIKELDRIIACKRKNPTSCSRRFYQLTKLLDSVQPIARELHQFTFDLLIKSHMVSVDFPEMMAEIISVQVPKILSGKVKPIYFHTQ
smiles,measurement,setting,value
Oc1ccc(/C=C/c2cc(O)cc(O)c2)cc1,Potency,[1],inactive [sample A] and active: 24.6 µM [sample B] and active: 27.3 µM [sample C]
O=C(O)c1cc(N=Nc2ccc(S(=O)(=O)Nc3ccccn3)cc2)ccc1O,Potency,[2],active: 27.4 µM [sample A] and active: 27.3 µM [sample B] and inactive [sample C]
same,Potency,[3],active: 30.7 µM [sample A] and active: 24.3 µM [sample B] and inactive [sample C]
O=C(c1ccccc1)c1ccccc1,Potency,[4],active: 26.6 µM [sample A] and inactive [sample B] and inactive [sample C]
CC(O)CN(CCN(CC(C)O)CC(C)O)CC(C)O (stereo unspecified),Potency,[5],inactive [sample A] and inactive [sample B] and active: 2.39 µM [sample C]
N=C(N)c1ccc(OCCCCCOc2ccc(C(=N)N)cc2)cc1,Potency,[6],inactive [sample A] and active: 48.8 µM [sample B]
c1ccc2[nH]ccc2c1,Potency,[2],active: 16.9 µM [sample A] and inactive [sample B] and inactive [sample C]
same,Potency,[3],active: 21.3 µM [sample A] and inactive [sample B] and inactive [sample C]
same,Potency,[7],active: 12.1 µM [sample A] and inactive [sample B] and inactive [sample C]
same,Potency,[5],active: 19.2 µM [sample A] and inactive [sample B] and inactive [sample C]
same,Potency,[8],active: 47.8 µM [sample A] and inactive [sample B] and inactive [sample C]
same,Potency,[9],active: 30.1 µM [sample A] and inactive [sample B] and inactive [sample C]
Cn1cc[nH]c1=S,Potency,[9],active: 21.7 µM [sample A] and inactive [sample B] and inactive [sample C]
CCCN(CCC)S(=O)(=O)c1ccc(C(=O)O)cc1,Potency,[4],active: 26.6 µM [sample A] and inactive [sample B] and inactive [sample C]
Cc1cc(=O)n(-c2ccccc2)n1C,Potency,[7],active: 44.8 µM [sample A] and inactive [sample B] and inactive [sample C]
same,Potency,[5],active: 40 µM [sample A] and inactive [sample B] and inactive [sample C]

# — PubChem BioAssay (Tox21)
